From patent US20060154902A1, “Shortening of hospital stay and improving survival in patients with chronic kidney disease” (priority 2002, published 2006)

Tests used:
[1] = tested on: adult patients, new to hemodialysis; test: Historical cohort of hemodialysis patients: hospitalization outcomes (hospital days per year, hospitalizations per year); format: in vivo, human; conditions: for median annual hospitalizations / median days in the hospital per year: historical cohort of 11,340 hemodialysis patients, 35-month period; for median annual hospitalizations: No D group 3; for median days in the hospital per year: No D group 15; for more hospital days per year in the No D group compared to the treated group / more annual hospitalizations in the No D group compared to the treated group: negative binomial regression, FIG. 3 / FIG. 4; for more hospital days per year in the No D group compared to the treated group: p<0.0001; for more annual hospitalizations in the No D group compared to the treated group: p<0.006 (calcitriol), p<0.0001 (paricalcitol)
Source text: Vitamin D modulates cell differentiation and proliferation in the cardiovascular and immune system, and in various malignant and pre-malignant tissues. […] Patients entered the cohort at any time. Vitamin D use was defined by the administration of at least doses of a Vitamin D product. Hospitalizations were identified by documented hospitalized absences from the dialysis clinic and were standardized by patient observation period. ANOVA or Chi-Square tests were used to evaluate differences in baseline characteristics. Univariate tests and negative binomial regression models were used to evaluate hospitalization outcomes: hospital days per year and hospitalizations per year. […] There was no difference for baseline phosphorus. […] However, compared to the paricalcitol group, the No D group experienced 30% more annual hospitalizations and 100% more days per year in the hospital (p<0.0001 for both)(as shown in FIG. 4).

[2] = tested on: patients receiving chronic renal replacement therapy; conditions: in vivo

Structure (SMILES) | median annual hospitalizations [1] | median days in the hospital per year [1] [days per year] | more hospital days per year in the No D group compared to the treated group [1] [%] | more annual hospitalizations in the No D group compared to the treated group [1] [%] | hospitalizations and days in the hospital compared with the other groups ([1]; paricalcitol vs calcitriol vs No D) | mean serum calcium and phosphorus between calcitriol and paricalcitol patient groups [2]
C[C@H](/C=C/[C@H](C)C(C)(C)O)[C@H]1CC[C@H]2/C(=C/C=C3C[C@@H](O)C[C@H](O)C3)CCC[C@]12C [paricalcitol] | 2 | 5 | 100 | 30 | fewest hospitalizations and days in the hospital | no significant difference
C=C1/C(=C\C=C2/CCC[C@]3(C)[C@@H]([C@H](C)CCCC(C)(C)O)CC[C@@H]23)C[C@@H](O)C[C@@H]1O [calcitriol] | 2 | 11 | 59 | 17 |  | no significant difference
